From PubChem BioAssay AID1508642 (National Center for Advancing Translational Sciences (NCATS), 2021)
Out of some 43,000 compounds screened, about 200 (0.47%) were called active. Inconclusive results (about 12%) are left out. Calls follow the shape of the dose curve; as a rule, active = well fitted cell-killing curve with a large enough effect; inconclusive = small, poorly fitted or top-dose-only effect, or effect the other way; inactive = flat fitted curve, though single readings scatter. The list shows a part of the results.

Assay: Cell viability qHTS assay in S16 Pmp22-F2sN cells; also: nearly all actives have a fitted effect of over 65% in size
Details: S16 Pmp22-F2sN Schwann cells viability, CellTiter-Glo, 24 h; series mostly up to 57.5 µM; activity change, negative = cytotoxicity: at the top concentration
Outline: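 S16 Pmp22-F2sN Schwann cells (500-1,000/well) in phenol-red-free DMEM with 10% FBS received 23 nL compound by pin tool for 24 h at 37 °C. Viability was then read as CellTiter-Glo luminescence after 15 min at room temperature.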
% is scaled to controls: 0 for no effect and ±100 for the full control effect.

SMILES	activity change, negative = cytotoxicity
COc1ccc(OC)c(S(=O)(=O)NCCc2sc(C)nc2C)c1	inactive: 1.39%
Cc1c(Cl)cccc1NC(=O)CCS(=O)(=O)c1cccc2nsnc12	inactive: -3.47%
COc1ccccc1N(CC(=O)NCCSc1ccccc1)S(=O)(=O)c1ccc(C)cc1	inactive: -25.1%
Cc1ccc(NC(=O)CCNS(=O)(=O)c2cccs2)cc1F	inactive: 1.86%
COc1cccc(-c2nn(C)c3sc(C(=O)N4CCN(c5cccc(C(F)(F)F)c5)CC4)cc23)c1	inactive: -7.85%
Cc1ccc(NC(=O)C2CCCN(S(=O)(=O)c3ccc(C)cc3)C2)cc1 (configuration not stated)	inactive: -5.08%
CCOC(=O)c1c(S(=O)(=O)N2CCN(c3cc(Cl)ccc3C)CC2)c(C)n(C)c1C	inactive: -16.1%
Cc1ccc(NC(=O)Cn2nc(-c3ccc(Cl)cc3)c3ccccc3c2=O)cc1	inactive: 19.4%
COc1ccc(NC(=O)Cn2ncc3c4ccccc4n(Cc4ccccc4)c3c2=O)cc1OC	inactive: 20.8%
COc1ccccc1-c1ncnn1-c1sc2c(c1C#N)CCCCC2	inactive: 3.75%
COc1cc(NS(=O)(=O)c2ccc3c(c2)OCC(C(=O)N2CCCC2)O3)cc(OC)c1 (configuration not stated)	inactive: -2.44%
COC(=O)c1ccc(NC(=O)C(c2ccccc2)N2Cc3ccccc3C2=O)cc1 (configuration not stated)	inactive: -2.5%
Cc1cccc(CCNC(=O)CCc2c(C)nc3c(-c4ccc(F)cc4)c(C)nn3c2C)c1	inactive: -4.67%
Cc1nc(-c2ccc(Cl)cc2)sc1CCNC(=O)C(=O)Nc1ccccc1C#N	inactive: -2.38%
CCCc1ccc(OC(=O)c2sc3ncn(Cc4cccc(F)c4)c(=O)c3c2C)cc1	inactive: 6.91%
COc1ccc(NC(=O)Cn2c(SCc3c(F)cccc3Cl)nc3ccncc32)cc1OC	inactive: 6.5%
COCCn1c(SCC(=O)Nc2ccc(Br)cc2)nc2c([nH]c3ccccc32)c1=O	inactive: 3.28%
CCCCN(C(=O)Nc1ccc(OCC)cc1)C1CCN(C(C)=O)CC1	inactive: 7.54%
COc1ccc(N2CCN(C(=O)c3cc4c(s3)-c3c(C)cccc3OC4)CC2)cc1	inactive: 8.93%
Cc1cc(C)cc(NC(=O)C2CCCN(c3nnc(-n4c(C)ccc4C)s3)C2)c1 (configuration not stated)	inactive: -0.718%
CCN(CC)CCCNC(=O)c1ccc2c(c1)NC(=O)C(CS(=O)(=O)Cc1ccc(F)cc1Cl)N2 (configuration not stated)	inactive: 0.0338%
CCOC(=O)c1cccc(NC(=O)Cn2cnc3nc4c(cc3c2=O)CCCC4)c1	inactive: 0.352%
COc1ccc(N2CC(c3nc(-c4ccccc4C)no3)CC2=O)cc1Cl (configuration not stated)	inactive: 13.4%
CCc1ccc(NS(=O)(=O)c2ccc3[nH]cc(C(=O)NCCc4ccccc4)c(=O)c3c2)cc1	inactive: 13.7%
COCCNC(=O)c1sc2nc3n(c(=O)c2c1C)CCC3	inactive: -2.31%
COc1ccc(-c2noc(CNC(=O)c3ccc(OC)cc3OC)n2)cc1	inactive: 6.46%
Cc1cccc(CNC(=O)C2CCN(S(=O)(=O)c3cccc4nonc34)CC2)c1	inactive: 18%
